Some of the results follow.
Assays:
Assay in all cases: glycan array binding signal (z-score within array); higher = stronger binding
Details in all cases: glycan notation: IUPAC condensed, linker removed; mutation: E227A
[1] = biological target: Gal(b1-3)GlcNAc(b1-2)Man(a1-3)[Gal(b1-3)GlcNAc(b1-2)Man(a1-6)]Man(b1-4)GlcNAc(b1-4)GlcNAc
In short: (§1)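 Columns mapping to the same glycan were averaged after glycan names were converted to IUPAC-condensed notation. The data come from 3228 arrays in the Consortium for Functional Glycomics database, limited to those with an available protein sequence. Binding is reported as a within-array Z-score averaged across arrays of one protein sequence and across linkers.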

[2] = biological target: Gal(b1-3)GlcNAc(b1-2)Man(a1-3)[Gal(b1-3)GlcNAc(b1-2)Man(a1-6)]Man(b1-4)GlcNAc(b1-4)[Fuc(a1-6)]GlcNAc
In short: as §1

[3] = biological target: Gal(b1-3)GlcNAc(b1-2)Man(a1-3)[GlcNAc(b1-4)][Gal(b1-3)GlcNAc(b1-2)Man(a1-6)]Man(b1-4)GlcNAc(b1-4)GlcNAc
In short: as §1

[4] = biological target: Gal(b1-3)GlcNAc(b1-2)[Gal(b1-3)GlcNAc(b1-6)]Man(a1-6)[Gal(b1-3)GlcNAc(b1-2)Man(a1-3)]Man(b1-4)GlcNAc(b1-4)GlcNAc
In short: as §1

[5] = biological target: Gal(b1-3)GlcNAc(b1-3)Gal(b1-3)GlcNAc
In short: as §1

[6] = biological target: Gal(b1-3)GlcNAc(b1-3)Gal(b1-4)Glc
In short: as §1

[7] = biological target: Gal(b1-3)GlcNAc(b1-3)Gal(b1-4)GlcNAc
In short: as §1

[8] = biological target: Gal(b1-3)GlcNAc(b1-3)Gal(b1-4)GlcNAc(b1-2)Man(a1-3)[Gal(b1-3)GlcNAc(b1-3)Gal(b1-4)GlcNAc(b1-2)Man(a1-6)]Man(b1-4)GlcNAc(b1-4)GlcNAc
In short: as §1

[9] = biological target: Gal(b1-3)GlcNAc(b1-3)Gal(b1-4)GlcNAc(b1-2)[Gal(b1-3)GlcNAc(b1-3)Gal(b1-4)GlcNAc(b1-6)]Man(a1-6)[Gal(b1-3)GlcNAc(b1-3)Gal(b1-4)GlcNAc(b1-2)Man(a1-3)]Man(b1-4)GlcNAc(b1-4)[Fuc(a1-6)]GlcNAc
In short: as §1

[10] = biological target: Gal(b1-3)GlcNAc(b1-3)Gal(b1-4)GlcNAc(b1-3)Gal(b1-4)GlcNAc(b1-2)[Gal(b1-3)GlcNAc(b1-3)Gal(b1-4)GlcNAc(b1-3)Gal(b1-4)GlcNAc(b1-6)]Man(a1-6)[Gal(b1-3)GlcNAc(b1-3)Gal(b1-4)GlcNAc(b1-3)Gal(b1-4)GlcNAc(b1-2)Man(a1-3)]Man(b1-4)GlcNAc(b1-4)[Fuc(a1-6)]GlcNAc
In short: as §1

[11] = biological target: Gal(b1-3)GlcNAc(b1-3)Gal(b1-4)GlcNAc(b1-6)[Gal(b1-3)GlcNAc(b1-3)]Gal(b1-4)Glc
In short: as §1

[12] = biological target: Gal(b1-3)GlcNAc(b1-3)Gal(b1-4)[Fuc(a1-3)]GlcNAc
In short: as §1

[13] = biological target: Gal(b1-3)GlcNAc(b1-3)Gal(b1-4)[Fuc(a1-3)]GlcNAc(b1-6)[Gal(b1-3)GlcNAc(b1-3)]Gal(b1-4)Glc
In short: as §1

[14] = biological target: Gal(b1-3)GlcNAc(b1-3)GalNAc
In short: as §1

[15] = biological target: Gal(b1-3)GlcNAc(b1-6)Gal(b1-4)GlcNAc
In short: as §1

[16] = biological target: Gal(b1-3)GlcNAc(b1-6)GalNAc
In short: as §1

[17] = biological target: Gal(b1-3)GlcNAc(b1-6)[Gal(b1-3)]GalNAc
In short: as §1

Gal(b1-3)GlcNAc6S = biological target: Gal(b1-3)GlcNAc6S
In short: as §1

[18] = biological target: Gal(b1-3)[Fuc(a1-4)]GlcNAc
In short: as §1

[19] = biological target: Gal(b1-3)[Fuc(a1-4)]GlcNAc(b1-2)Man
In short: as §1

[20] = biological target: Gal(b1-3)[Fuc(a1-4)]GlcNAc(b1-2)Man(a1-3)[Gal(b1-3)[Fuc(a1-4)]GlcNAc(b1-2)Man(a1-6)]Man(b1-4)GlcNAc(b1-4)[Fuc(a1-6)]GlcNAc
In short: as §1

[21] = biological target: Gal(b1-3)[Fuc(a1-4)]GlcNAc(b1-3)Gal(b1-3)[Fuc(a1-4)]GlcNAc
In short: as §1

[22] = biological target: Gal(b1-3)[Fuc(a1-4)]GlcNAc(b1-3)Gal(b1-4)[Fuc(a1-3)]GlcNAc
In short: as §1

[23] = biological target: Gal(b1-3)[Fuc(a1-4)]GlcNAc(b1-6)GalNAc
In short: as §1

[24] = biological target: Gal(b1-3)[GlcNAc(b1-6)]GalNAc
In short: as §1

[25] = biological target: Gal(b1-3)[Neu5Ac(a2-6)]GalNAc
In short: as §1

[26] = biological target: Gal(b1-3)[Neu5Ac(a2-6)]GlcNAc(b1-4)Gal(b1-4)Glc
In short: as §1

[27] = biological target: Gal(b1-3)[Neu5Ac(b2-6)]GalNAc
In short: as §1

Gal(b1-4)Gal = biological target: Gal(b1-4)Gal
In short: as §1

[28] = biological target: Gal(b1-4)GalNAc(a1-3)[Fuc(a1-2)]Gal(b1-4)GlcNAc
In short: as §1

B1: Epa1-NP-mutant-E227A (Candida glabrata), Q6VBJ0 (protein)
chain: MILNPALFLNKCVCIYTTLILLLLTNGGYATSSNDISLASKDPTTFPLGCSPDITTPKKGLSMELYSYDFRKKGSYPCWDAAYLDPNYPRTGYKSHRLLAKVDGVTGNINFYYHATKGCTPQLGHLPASYNYPKPLTMTNFTMLLYGYFRPKVTGFHTFTISADDLLFVNFGAGNAFDCCRRDSSADHFGNYQAYAIWGSKTAKDELTVHLDAGVYYPIRLFYNNRAYDGALSFTFKTESNENTVSDFSEYFFSLDDTEEGCPGLISYDSSCASVKTSKIIGIDYHTETPNENLVPITKTIYHLGIPCTGTTTTPLCGSGFYDPLANKCVTINTSSTSSVTKTTSHTTSKEVSFHSSISSQKTLIPKSIPSPYGPIKSQSIPTEMETSSEISSSEYAFSDVISTPSHSPYTKKHSSLNSSSYTSTVIHSLTSYSISQGIFSTSLSEQNITSKSSTDKFSTATSMSNNITQSSIIISQFSTNNENYTTTSMHTSSDKISTETLNNSISTTTSILFSNSSTILKNNTTIISSDKDTHYHPVNPTIVCSTNKTEIICASITQPSISNSNNHWSSSVLKFNSTTVRSTLPSSAGSNETSINVPFSSSTESNTSTSSTSTSNSKMVRSTLPSSAGSNETSISVPFSSSTESNTSTSSTSTSNSKMVRSTLPSSAGSNETSINVPFSSSTESNTSTSSTSTSNSKTVRSTPFSSAGIIMTSLSQRNNKSASSYASSNSKCYNTADSCRKVHSTPSYLLTSSYTSEGVDYDCSLVSTKLKINDTNCVNNKHTTKSCLKTSVTTTIPTLEIKTARKSSSNTIGLHSYPTSSPNKSISSAPIIGYISSFKTIKTASPSYQTSDLTTITTITSLNNPGSTAVENTHESNDKSRKTSSNDISSKHSVIKETKDAVESSNKSHQTNTLKCSSIIIASSSHNSYESLGGTTLTLTLSKVYSPQNNDTLPFLEISEVNPSRTVLPESSKMMQYLTSTEERNKTARNTIATNIVSISTFHFEGEGNAIRMGYTQLLLMLIGIIVMNIGT
B1 was tested, and the “glycan array binding signal (z-score)” value [1] was 0.473, the “glycan array binding signal (z-score)” value [2] was 0.191 and the “glycan array binding signal (z-score)” value [3] was 1.09. For the same binder, the “glycan array binding signal (z-score)” value [4] was -0.012, the “glycan array binding signal (z-score)” value [5] was 0.187 and the “glycan array binding signal (z-score)” value [6] was -0.047. For the same binder, the “glycan array binding signal (z-score)” value [7] was -0.022, the “glycan array binding signal (z-score)” value [8] was -0.161 and the “glycan array binding signal (z-score)” value [9] was 0.042. For the same binder, the “glycan array binding signal (z-score)” value [10] was 0.433, the “glycan array binding signal (z-score)” value [11] was 0.789 and the “glycan array binding signal (z-score)” value [12] was -0.109. For the same binder, the “glycan array binding signal (z-score)” value [13] was 0.52, the “glycan array binding signal (z-score)” value [14] was -0.132 and the “glycan array binding signal (z-score)” value [15] was 7.88. The “glycan array binding signal (z-score)” value [16] was -0.168, the “glycan array binding signal (z-score)” value [17] was 0.964 and the “glycan array binding signal (z-score)” value (Gal(b1-3)GlcNAc6S) was 1.37. For the same binder, the “glycan array binding signal (z-score)” value [18] was -0.197, the “glycan array binding signal (z-score)” value [19] was -0.171 and the “glycan array binding signal (z-score)” value [20] was -0.175. For the same binder, the “glycan array binding signal (z-score)” value [21] was -0.191, the “glycan array binding signal (z-score)” value [22] was -0.207 and the “glycan array binding signal (z-score)” value [23] was -0.137. The “glycan array binding signal (z-score)” value [24] was 0.982, the “glycan array binding signal (z-score)” value [25] was 0.744 and the “glycan array binding signal (z-score)” value [26] was -0.133. The “glycan array binding signal (z-score)” value [27] was -0.062, the “glycan array binding signal (z-score)” value (Gal(b1-4)Gal) was -0.16 and the “glycan array binding signal (z-score)” value [28] was 0.533.
